{
  "source": "PubChem BioAssay AID540317",
  "about": "(National Center for Advancing Translational Sciences (NCATS), 2011)",
  "note": "Out of some 390,000 compounds screened, about 2,200 (0.56%) were called active. The shares of active, inactive and inconclusive entries below differ from those in the screen. Calls come from the whole dose curve; as a rule, active = well fitted inhibition curve with a large enough effect; inconclusive = small, poorly fitted or top-dose-only effect; inactive = no such curve, though single readings can be large or run the other way. Potencies of inconclusive entries are doubtful fits and often do not repeat. Potency is the fitted concentration of half-maximal effect; tags give direction and shape of the fitted curve.",
  "data": [
    {"molecular_target": "Chromobox protein homolog 1 (Homo sapiens) (UniProt P83916)", "sequence (P83916 whole entry, looked up)": "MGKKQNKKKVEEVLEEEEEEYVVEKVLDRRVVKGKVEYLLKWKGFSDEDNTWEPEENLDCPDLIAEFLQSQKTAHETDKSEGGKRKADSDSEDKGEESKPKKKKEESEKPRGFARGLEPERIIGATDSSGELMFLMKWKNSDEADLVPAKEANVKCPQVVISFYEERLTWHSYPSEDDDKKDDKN", "assay": "HTS for Inhibitors of HP1-beta Chromodomain Interactions with Methylated Histone Tails; note: nearly all actives have a fitted effect of over 70% in size", "conditions": "AlphaScreen HP1-beta / biotin-H3K9me3 peptide binding; series mostly up to 114 µM", "procedure,_shortened": "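Compound inhibition of the preformed complex between 50 nM HP1-beta and 50 nM biotinylated H3K9me3 peptide was read by AlphaScreen. Buffer was PBS pH 7.4 with 0.01% Tween-20. Incubations ran 30 min at room temperature, with 10 ug/mL donor/acceptor beads.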", "values": [
      {"smiles": "CCOc1ccc(/C=N/OCC(=O)Nc2ccc(OCc3ccccc3)cc2)cc1OC", "Potency": "inactive"},
      {"smiles": "CC[n+]1c(C)sc2c3ccsc3ccc21", "Potency": "inconclusive: 79.4 µM [inhibitor, partial curve]"},
      {"smiles": "CCN(c1ccc(NC(=O)COC(=O)c2ccc(C)c(S(=O)(=O)N3CCOCC3)c2)cc1)C(C)C", "Potency": "inconclusive: 10 µM [inhibitor, partial curve]"},
      {"smiles": "COc1cccc(OCC(=O)NC2CC(=O)N(c3cccc(OC)c3)C2)c1", "note": "(configuration not stated)", "Potency": "inactive"},
      {"smiles": "Cc1c2cc(O)c(=O)cc-2oc2cc(O)c(O)cc12", "Potency": "active: 0.708 µM"},
      {"smiles": "CC(Cc1c[nH]c2ccccc12)C(=O)O", "note": "(configuration not stated)", "Potency": "inconclusive: 15.8 µM [inhibitor, full curve]"},
      {"smiles": "Cc1cc(C)c2c(=O)cc(C(=O)Nc3sc4c(c3C(=O)NCc3ccco3)CCCC4)oc2c1", "Potency": "inactive"},
      {"smiles": "Oc1ccc(/C=N/n2c(COc3ccccc3)n[nH]c2=S)cc1O", "Potency": "inconclusive: 12.6 µM [inhibitor, partial curve]"},
      {"smiles": "CCOC(=O)c1c(NC(=O)c2cc(-c3cccc(Cl)c3)on2)sc(C(C)=O)c1C", "Potency": "active: 70.8 µM"},
      {"smiles": "COc1cc(O)c(C(CCN2CCN(c3ccccc3)CC2)c2cc(OC)c(OC)c(OC)c2)c(OC)c1", "note": "(configuration not stated)", "Potency": "inconclusive: 39.8 µM [inhibitor, full curve]"},
      {"smiles": "COc1ccc(C(=O)N2CCC(C(=O)Nc3ccc(C)cc3)CC2)cc1", "Potency": "inconclusive: 7.08 µM [inhibitor, full curve]"},
      {"smiles": "COc1ccc2c(c1)c(=O)oc1c(C)c(OCc3cc(C(=O)O)oc3C)ccc12", "Potency": "inconclusive: 44.7 µM [inhibitor, partial curve]"},
      {"smiles": "Nc1nc(-c2ccccc2)c(N=Nc2ccc(Cl)cc2)s1", "Potency": "inconclusive: 6.31 µM [inhibitor, full curve, poor fit]"},
      {"smiles": "CC1CCCC(C)N1CCCNC(=O)c1csc2c1CCCCC2", "note": "(configuration not stated)", "Potency": "inactive"},
      {"smiles": "Cc1ccc(-c2nc3ccccc3c(=O)n2NC(=S)N(C)C)cc1", "Potency": "inconclusive: 50.1 µM [inhibitor, partial curve]"},
      {"smiles": "CCCS(=O)(=O)c1nc(S(=O)(=O)c2ccc(C)cc2)c(NCCCOC(C)C)s1", "Potency": "inactive"},
      {"smiles": "CCOc1ccc(-n2c(N)c(C(=O)NCc3ccco3)sc2=S)cc1", "Potency": "inactive"},
      {"smiles": "Cc1ccc2[nH]c(C(=O)N3CCOCC3)cc2c1", "Potency": "inactive"},
      {"smiles": "CCOCCN1CCN(C2c3ccccc3CSc3ccccc32)CC1", "note": "(configuration not stated)", "Potency": "inconclusive: 56.2 µM [inhibitor, partial curve, poor fit]"},
      {"smiles": "Cn1sc(=O)c2cc(S(=O)(=O)NC3CC3)ccc21", "Potency": "inconclusive: 25.1 µM [inhibitor, partial curve]"},
      {"smiles": "O=C1c2cccc3c([N+](=O)[O-])ccc(c23)C(=O)N1O", "Potency": "inactive"},
      {"smiles": "CCOC(=O)c1csc(COc2ccc(OC)cc2)n1", "Potency": "inactive"},
      {"smiles": "O=[N+]([O-])c1ccc(C=NNc2ccccc2)cc1", "Potency": "inconclusive: 50.1 µM [inhibitor, partial curve]"},
      {"smiles": "Oc1c(Br)cc(Br)c(/C=N/n2c(-c3ccccc3)n[nH]c2=S)c1Br", "Potency": "inconclusive: 15.8 µM [inhibitor, full curve]"},
      {"smiles": "CCc1noc(C)c1C(=O)NNC(=O)COc1ccc(Br)cc1", "Potency": "inactive"},
      {"smiles": "COc1ccccc1NC(=O)c1ccccc1S(=O)(=O)c1ccc([N+](=O)[O-])cc1", "Potency": "inactive"},
      {"smiles": "C=CC[n+]1c(-c2ccc(Cl)cc2Cl)csc1Nc1ccc(NC(C)=O)cc1", "Potency": "inconclusive: 20 µM [inhibitor, partial curve]"},
      {"smiles": "O=C1NC2=C(C(=O)c3ccccc32)C(c2ccccc2)N1", "note": "(configuration not stated)", "Potency": "inactive"},
      {"smiles": "COc1cccc(CNCc2ccccn2)c1OC", "Potency": "inactive"},
      {"smiles": "Cc1ccc(C)c(S(=O)(=O)N2CCN(C(=O)/C=C/c3ccco3)CC2)c1", "Potency": "inconclusive: 25.1 µM [inhibitor, partial curve, poor fit]"},
      {"smiles": "COc1ccc(/C(C)=N/NC(=O)c2ccncc2)cc1[N+](=O)[O-]", "Potency": "inactive"},
      {"smiles": "O=C(NCc1ccccc1)c1cnc2sc(N3CCCC3)nn2c1=O", "Potency": "inconclusive: 89.1 µM [inhibitor, single point]"},
      {"smiles": "C/C(=N\\Nc1nc(C)c(C)s1)c1ccc([N+](=O)[O-])cc1", "Potency": "inconclusive: 50.1 µM [inhibitor, partial curve]"},
      {"smiles": "CCn1c(-c2cc(Br)ccc2O)n[nH]c1=S", "Potency": "inactive"},
      {"smiles": "CN(C)c1nc(NCc2ccccc2)nc(N/N=C/c2cccc(Br)c2)n1", "Potency": "inconclusive: 6.31 µM [inhibitor, full curve, poor fit]"},
      {"smiles": "O=C(NCCN1C(=O)S/C(=C\\c2cccnc2)C1=O)C1CC(=O)N(Cc2ccco2)C1", "note": "(configuration not stated)", "Potency": "inconclusive: 35.5 µM [inhibitor, full curve]"},
      {"smiles": "CCS(=O)(=O)N1CCN(CC2CC3C=CC2C3)CC1", "note": "(configuration not stated)", "Potency": "inconclusive: 17.8 µM [inhibitor, partial curve, poor fit]"},
      {"smiles": "CC(C)CNC(C(=O)Nc1ccc([N+](=O)[O-])cc1Br)c1ccccc1", "note": "(configuration not stated)", "Potency": "inconclusive: 14.1 µM [inhibitor, full curve, poor fit]"},
      {"smiles": "COCCn1c(=NC(=O)CCS(=O)(=O)c2ccccc2)sc2cc(F)ccc21", "Potency": "inconclusive: 89.1 µM [inhibitor, single point]"},
      {"smiles": "CC(C)(C)NC(=O)C(=O)NCCC1=CCCCC1", "Potency": "inconclusive: 39.8 µM [inhibitor, single point]"},
      {"smiles": "C#CCOCCOCCOCCNc1nc(N2CCN(C(=O)CCCCCCCCCCNC(=O)Cn3cc(CCCCCN)nn3)CC2)nc(N2CCN(C(=O)CCCCCCCCCCNC(=O)[C@H](CO)n3cc(CCCSC)nn3)CC2)n1", "Potency": "inconclusive: 50.1 µM [inhibitor, partial curve, poor fit]"},
      {"smiles": "Cc1ccc2nc(-c3cccc(NC(=O)CSc4ccc(Cl)cc4)c3)oc2c1", "Potency": "inactive"},
      {"smiles": "CCOC(=O)C1Nc2ccc(OC(F)(F)F)cc2C2C=CCC12", "note": "(configuration not stated)", "Potency": "inconclusive: 50.1 µM [inhibitor, partial curve]"},
      {"smiles": "O=S(=O)(NNc1ccc(F)cc1F)c1cccc(Cl)c1", "Potency": "inconclusive: 50.1 µM [inhibitor, partial curve, poor fit]"},
      {"smiles": "CCN(CC(=O)NCc1cccs1)C(=O)c1ccc(S(=O)(=O)Nc2cccc(C)c2C)cc1", "Potency": "inactive"},
      {"smiles": "CNC(=O)c1c(C)[nH]c(=S)c(C#N)c1-c1ccco1", "Potency": "inconclusive: 20 µM [inhibitor, full curve, poor fit]"},
      {"smiles": "Cc1ccc(OCCN2CCCCCC2)c(C)c1", "Potency": "inactive"},
      {"smiles": "O=C(CSc1nnc(Nc2ccccc2F)s1)NCc1ccco1", "Potency": "inconclusive: 50.1 µM [inhibitor, partial curve, poor fit]"},
      {"smiles": "O=C(COC(=O)c1cc(-c2ccccc2Cl)nc2ccccc12)Nc1ncc(C(F)(F)F)cc1Cl", "Potency": "inconclusive: 20 µM [inhibitor, partial curve, poor fit]"},
      {"smiles": "C/C(=N\\NS(=O)(=O)c1ccc([N+](=O)[O-])cc1)c1ccc2c(c1)OCO2", "Potency": "inactive"},
      {"smiles": "CC(C)C(=O)Nc1cccc(C(=O)Nc2nccs2)c1", "Potency": "inconclusive: 89.1 µM [inhibitor, single point]"},
      {"smiles": "O=C(O)C1Nc2c(Cl)cc(Cl)cc2C2C=CCC12", "note": "(configuration not stated)", "Potency": "active: 28.2 µM"},
      {"smiles": "COc1cc(NC(=S)NCc2ccc(S(N)(=O)=O)cc2)c(OC)cc1Cl", "Potency": "inconclusive: 31.6 µM [inhibitor, single point]"},
      {"smiles": "O=C(O)c1ccc(COc2ccccc2/C=C2\\NC(=O)N(Cc3ccccc3F)C2=O)cc1", "Potency": "inconclusive: 44.7 µM [inhibitor, partial curve]"},
      {"smiles": "CC(C)N(C(=S)Nc1ccc(S(=O)(=O)N2CCOCC2)cc1)c1ccccc1", "Potency": "inconclusive: 50.1 µM [inhibitor, partial curve, poor fit]"},
      {"smiles": "CCOC(=O)c1ccc(Oc2nc(C)nc3c2oc2ccccc23)cc1", "Potency": "inactive"},
      {"smiles": "COc1cc(OC)cc(C(=O)NC(C)CNc2ccc(Cl)cc2[N+](=O)[O-])c1", "note": "(configuration not stated)", "Potency": "inconclusive: 15.8 µM [inhibitor, partial curve, poor fit]"},
      {"smiles": "COc1ccc(-c2nc(CSCC(=O)NC3CCCc4ccccc43)c(C)o2)cc1OC", "note": "(configuration not stated)", "Potency": "inactive"},
      {"smiles": "Cc1ccc(Cc2c(C)[nH]c(=S)[nH]c2=O)cc1", "Potency": "inactive"},
      {"smiles": "CCCCN(Cc1nc2ccccc2c(=O)[nH]1)C(=O)c1nn(C)c(=O)c2ccccc12", "Potency": "inactive"},
      {"smiles": "CC(C)OC(=O)c1cc2c(ccn2C)n1CC(=O)N(Cc1ccccc1)c1ccc(F)cc1", "Potency": "inconclusive: 10 µM [inhibitor, full curve, poor fit]"},
      {"smiles": "O=C(O)[C@H]1CCCN1S(=O)(=O)c1cccc2cccnc12", "Potency": "inactive"},
      {"smiles": "CCC1CCCCN1Cc1ccc(OC)c(C)c1", "note": "(configuration not stated)", "Potency": "inconclusive: 70.8 µM [inhibitor, single point]"},
      {"smiles": "Cc1ccc(OCCNCc2ccccc2)c(C)c1", "Potency": "inconclusive: 44.7 µM [inhibitor, partial curve, poor fit]"},
      {"smiles": "COc1cc(/C=C/C(=O)Nc2nnc(C(C)(C)C)s2)cc(OC)c1OC", "Potency": "inconclusive: 15.8 µM [inhibitor, partial curve, poor fit]"},
      {"smiles": "O=C(Cc1ccccc1)c1nc2ccccc2s1", "Potency": "inconclusive: 79.4 µM [inhibitor, single point]"},
      {"smiles": "Cc1ccc(S(=O)(=O)/C(C#N)=C/c2c(N3CCN(Cc4ccccc4)CC3)nc3ccccn3c2=O)cc1", "Potency": "inactive"},
      {"smiles": "CCN(Cc1cc(=O)[nH]c2ccccc12)C(=O)C(C)C", "Potency": "inactive"},
      {"smiles": "CCCC(=O)OCCNc1cc(SCc2ccco2)c2nonc2c1[N+](=O)[O-]", "Potency": "inconclusive: 20 µM [inhibitor, full curve]"},
      {"smiles": "COc1ccc(S(=O)(=O)Nc2ccc(-n3cccc3)cc2)cc1", "Potency": "active: 44.7 µM"},
      {"smiles": "Cc1c(NC(=O)C(C)OC(=O)c2ccc([N+](=O)[O-])cc2Cl)c(=O)n(-c2ccccc2)n1C", "note": "(configuration not stated)", "Potency": "inactive"},
      {"smiles": "CC(=O)NNC(=O)c1sc(=S)n2c1[nH]c(=O)c1sccc12", "Potency": "inconclusive: 8.91 µM [inhibitor, full curve]"}
    ]}
  ]
}
